# From paper PMC4336329 (PLoS ONE, 2015)
# In all, about 310,000 compounds went through this assay and about 14,000 (4.5%) showed an effect of 50% or more. The effect is printed as a negative number. The list shows a part of the results.
# Biological target: human ether-à-go-go-related gene (hERG) potassium channel (human, UniProt Q12809)
# Assay: primary screen, population patch clamp on CHO cells stably expressing hERG
# 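Also: peak tail current of the secondary pulse compared with the same well before compound.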
# Chain of human ether-à-go-go-related gene (hERG) potassium channel (Q12809 whole entry, looked up): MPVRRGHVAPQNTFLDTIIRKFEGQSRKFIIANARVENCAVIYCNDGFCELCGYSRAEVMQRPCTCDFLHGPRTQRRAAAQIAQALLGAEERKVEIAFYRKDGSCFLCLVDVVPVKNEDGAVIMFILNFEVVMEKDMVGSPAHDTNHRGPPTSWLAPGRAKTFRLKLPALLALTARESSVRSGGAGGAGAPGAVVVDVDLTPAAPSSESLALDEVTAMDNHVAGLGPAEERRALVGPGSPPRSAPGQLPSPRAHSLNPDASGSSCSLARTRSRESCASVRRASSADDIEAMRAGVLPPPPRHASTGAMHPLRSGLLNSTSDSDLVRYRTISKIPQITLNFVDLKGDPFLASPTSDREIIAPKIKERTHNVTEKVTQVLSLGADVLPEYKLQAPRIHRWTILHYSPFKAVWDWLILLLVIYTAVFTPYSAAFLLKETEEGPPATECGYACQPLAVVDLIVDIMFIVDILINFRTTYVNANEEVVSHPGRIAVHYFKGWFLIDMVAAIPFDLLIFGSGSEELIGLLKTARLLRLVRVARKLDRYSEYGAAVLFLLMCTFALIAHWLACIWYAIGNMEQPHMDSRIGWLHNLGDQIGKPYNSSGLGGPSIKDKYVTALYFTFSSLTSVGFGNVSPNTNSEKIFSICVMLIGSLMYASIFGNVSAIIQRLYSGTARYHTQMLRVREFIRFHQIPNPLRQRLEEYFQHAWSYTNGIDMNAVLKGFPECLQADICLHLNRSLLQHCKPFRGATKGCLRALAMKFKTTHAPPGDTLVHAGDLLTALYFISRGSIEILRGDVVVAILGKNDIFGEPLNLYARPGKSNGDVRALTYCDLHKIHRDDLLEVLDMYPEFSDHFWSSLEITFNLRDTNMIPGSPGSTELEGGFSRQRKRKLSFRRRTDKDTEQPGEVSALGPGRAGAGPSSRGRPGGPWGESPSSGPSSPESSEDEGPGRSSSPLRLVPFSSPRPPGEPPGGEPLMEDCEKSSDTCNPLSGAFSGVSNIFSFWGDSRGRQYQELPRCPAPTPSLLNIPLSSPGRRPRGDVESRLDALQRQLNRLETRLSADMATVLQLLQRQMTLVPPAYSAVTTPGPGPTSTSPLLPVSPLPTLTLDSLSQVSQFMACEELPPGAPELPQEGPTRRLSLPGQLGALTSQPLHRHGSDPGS
row,Structure (SMILES),"hERG current change (%, negative = inhibition) at 10uM [%]"
1,O=C(Nc1ccc(S(=O)(=O)NCC2CCCO2)cc1)c1ccc(Cl)cc1[N+](=O)[O-] (stereo not drawn),-19.6
2,COc1ccc(N2CCN(CC(=O)NC(=O)NCc3ccco3)CC2)cc1,-9.2
3,Cc1ccc(-c2c(C)n([O-])c3c([n+]2=O)CCC3)o1,9.36
4,COc1ccc(S(=O)(=O)N(CC(=O)NCc2ccncc2)c2ccc(C)cc2)cc1OC,-6.77
5,CC(=O)c1ccccc1NC(=O)CCNC(=O)c1ccco1,20.6
6,N#Cc1c(SCC(N)=O)nc2c(c1-c1ccc(O)cc1)CCCC2,4.9
7,CCNC(=O)NC(=O)C(C)OC(=O)C1CCN(S(=O)(=O)c2ccc(C)c(C)c2)CC1 (stereo not drawn),13.5
8,Cc1cc(C(C)C)n2c(nc3ccccc32)c1C#N,15.6
9,CCOc1ccc(N2CC(C(=O)NCCN3C(=O)S/C(=C\c4cccnc4)C3=O)CC2=O)cc1 (stereo not drawn),-0.149
10,CC/C(C)=N/N1C(=O)c2ccccc2NC1(C)CC (stereo not drawn),9.45
11,Cc1ccc(C(=O)N2CCCC(C(F)(F)F)C2)cc1S(=O)(=O)N1CCCCC1 (stereo not drawn),-9.98
12,COc1ccc(NC(=O)CSc2nc3nc(-c4cccs4)cc(C(F)(F)F)c3c(=O)[nH]2)c(OC)c1,-14.5
13,CCSc1nc2ccccc2c(=O)n1CCc1ccc(OC)c(OC)c1,14.9
14,CCOC(=O)N1CCN(C(=O)c2ccc(NS(=O)(=O)c3ccc4[nH]c(=O)[nH]c4c3)cc2)CC1,-2.72
15,Cc1sc2nc(SCC(=O)c3cccs3)n(Cc3ccco3)c(=O)c2c1C,-11.2
16,O=C(CSc1nc2cc(C(F)(F)F)ccc2n1Cc1ccccc1)NC1CCS(=O)(=O)C1 (stereo not drawn),-39.4
17,Cc1cccc(C)c1N1CCN(S(=O)(=O)c2ccc(F)cc2)CC1,2.08
18,Cc1cc(Cl)c2cc3ccccc3cc2n1,3.05
19,Clc1ccc2nc(CSc3ccccc3)cn2c1,-18.5

row,Structure (SMILES),"hERG current change (%, negative = inhibition) at 10uM [%]"
1,COc1ccc(NS(=O)(=O)c2cc(C)ccc2OC)cc1OC,10.5
2,COc1ccc(C)cc1NS(=O)(=O)c1ccc2c(c1)oc(=O)n2C,16.2
3,COc1ccccc1NC(=O)c1ccc(COc2ccc3c(c2)CCC3)cc1,6.53
4,COc1ccc(NS(=O)(=O)c2cccc(NC(=O)c3ccc(S(=O)(=O)N4CCCCCC4)cc3)c2)cc1,8.25
5,Cc1ccc(NC(=O)CCC(=O)N/N=C/c2cc([N+](=O)[O-])ccc2O)cc1,1.25
6,O=C1OCC/C1=C\c1ccccc1O,2.18
7,CCOc1c(Br)cc(/C=C(\C#N)C(=O)NC2CC2)cc1OC,1.2
8,CC1Cc2ccccc2N1Cc1ccc([N+](=O)[O-])cc1 (stereo not drawn),17.4
9,O=C(Nc1cccnc1)Nc1ccccn1,8.4
10,Cc1cc(C)n(CCCNC(=O)c2ccc3c(c2)NC(=O)CS3)n1,-2.48
11,COc1cc(C(=O)NC(=S)Nc2ccc(NC(=O)c3ccco3)cc2)cc(OC)c1OC,-6.61
12,Cc1ccc(CCN2CC(C(=O)NCCCOC(C)C)CC2=O)cc1 (stereo not drawn),-8.2
13,CC(C)Oc1cccc(C2NC(=O)c3ccccc3O2)c1 (stereo not drawn),7.79
14,c1ccc(-n2cnc3ccccc32)nc1,13.1
15,CC(NC(=O)C1CCCN1C(=O)OCc1ccccc1)c1ccccc1 (stereo not drawn),-6.56
16,CCSc1nc2cc(OC)c(OC)cc2c(=O)n1CC,-2.16
17,CC1(NC(=O)N2CCOCC2)CCS(=O)(=O)C1 (stereo not drawn),3.52
18,N#CC1=C(SCC(=O)c2ccccc2)NC2=C(C(=O)CCC2)C1c1ccco1 (stereo not drawn),1.93
19,COc1ccc(CN2C(=O)Cc3c2nc(N)c2c(N)nc(N4CCCCC4)c(C#N)c32)cc1,18.6

row,Structure (SMILES),"hERG current change (%, negative = inhibition) at 10uM [%]"
1,CC1C=CCC2C(=O)N(c3cccc(C(=O)NCc4ccccc4)c3)C(=O)C12 (stereo not drawn),0.997
2,CC(CCc1ccccc1)NC(=O)c1cncc(Br)c1 (stereo not drawn),-16.6
3,CC(=O)NC(C)Cc1ccccc1 (stereo not drawn),-0.103
4,CC(=O)Nc1ccc(OC(=O)N2CCCC2)cc1,-6.82
5,CC(C)CN(C#N)c1nc(N2CCOCC2)nc(N2CCOCC2)n1,-1.58
6,O=C1C(=O)N(CCO)C(c2ccc(Br)cc2)/C1=C(\O)c1ccccc1 (stereo not drawn),4.99
7,Cc1cc(/C=C(\C#N)C(=O)NCc2ccco2)c(C)n1C1CCCC1,-2.42
8,CCC(=O)N/C(=N/c1nc(C)cc(C)n1)Nc1ccc(C)cc1,5.51
9,C/C(=N\NC(=O)CCn1nnc2ccccc21)c1ccco1,4.59
10,COc1ccc(/C=N/NC(=O)c2nc(-c3ccccc3)n(-c3ccccc3)n2)cc1OC,1.61
11,CN(C)CC1CCCCC1OC(=O)c1ccc(Cl)cc1 (stereo not drawn),-28.5
12,COc1ccc(N2CC(O)=C(c3nc(-c4ccc(F)cc4)cs3)C2=N)cc1,13.4
13,Cc1nc2cc3c(cc2s1)OCO3,12
14,COC(=O)c1nn(-c2nc(-c3ccc(OC)c(OC)c3)cc(C(F)(F)F)n2)cc1[N+](=O)[O-],-17.9
15,CCC1C(=O)N(C)CCc2ccccc21 (stereo not drawn),11.4
16,O=C(Nc1ccc(O)cc1)/C(=C\c1cccs1)NC(=O)c1ccccc1,14.5
17,NS(=O)(=O)c1cccc(NC(=O)COC(=O)Cc2ccc(S(=O)(=O)N3CCCCC3)s2)c1,-2.28
18,Cl.NS(=O)(=O)c1cccc(N2CCNCC2)c1,11.7
19,CCCCCN(C(=O)CCC(=O)OCc1ccccc1C(F)(F)F)c1c(N)n(CCCC)c(=O)[nH]c1=O,-24.7
